In publication PMC4336329 (PLoS ONE, 2015):
Screen size: about 310,000 compounds; about 14,000 (4.5%) showed an effect of 50% or more. Effects have a minus sign here. This is one part of the list.

Target: human ether-à-go-go-related gene (hERG) potassium channel (human, UniProt Q12809)
Experiment: primary screen, population patch clamp on CHO cells stably expressing hERG
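Also: peak tail current of the secondary pulse compared with the same well before compound.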

Sequence of human ether-à-go-go-related gene (hERG) potassium channel (Q12809 whole entry, looked up): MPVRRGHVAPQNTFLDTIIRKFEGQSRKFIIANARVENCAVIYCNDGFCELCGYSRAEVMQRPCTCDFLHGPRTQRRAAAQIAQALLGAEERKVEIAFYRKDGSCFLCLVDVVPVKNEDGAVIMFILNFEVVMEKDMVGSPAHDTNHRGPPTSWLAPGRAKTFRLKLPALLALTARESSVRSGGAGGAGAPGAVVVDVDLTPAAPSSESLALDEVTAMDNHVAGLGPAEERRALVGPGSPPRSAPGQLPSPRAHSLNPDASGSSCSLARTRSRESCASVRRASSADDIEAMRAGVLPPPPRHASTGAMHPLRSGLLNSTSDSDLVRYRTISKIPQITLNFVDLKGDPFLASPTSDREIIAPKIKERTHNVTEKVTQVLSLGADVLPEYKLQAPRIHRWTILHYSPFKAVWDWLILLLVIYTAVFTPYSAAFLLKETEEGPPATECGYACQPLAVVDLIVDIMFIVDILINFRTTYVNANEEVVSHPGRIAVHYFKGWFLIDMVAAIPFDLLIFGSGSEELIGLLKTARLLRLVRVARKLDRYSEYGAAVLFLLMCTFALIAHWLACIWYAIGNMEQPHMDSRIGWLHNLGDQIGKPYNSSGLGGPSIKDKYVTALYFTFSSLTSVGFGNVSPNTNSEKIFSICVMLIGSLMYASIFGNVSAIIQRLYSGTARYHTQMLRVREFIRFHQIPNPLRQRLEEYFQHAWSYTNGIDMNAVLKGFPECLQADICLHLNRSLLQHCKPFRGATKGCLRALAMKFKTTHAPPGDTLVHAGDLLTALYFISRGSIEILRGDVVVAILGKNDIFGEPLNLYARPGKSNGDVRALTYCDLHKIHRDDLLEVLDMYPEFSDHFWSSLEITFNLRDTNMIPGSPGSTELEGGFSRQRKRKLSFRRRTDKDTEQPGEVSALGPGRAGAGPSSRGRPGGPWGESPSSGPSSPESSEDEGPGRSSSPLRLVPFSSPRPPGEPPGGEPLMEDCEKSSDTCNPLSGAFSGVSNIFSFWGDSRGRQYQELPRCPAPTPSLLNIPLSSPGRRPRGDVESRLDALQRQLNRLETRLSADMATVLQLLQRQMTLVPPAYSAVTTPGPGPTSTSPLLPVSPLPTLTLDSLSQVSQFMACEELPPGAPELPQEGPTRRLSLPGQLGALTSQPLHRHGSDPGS

Structure (SMILES) | hERG current change (%, negative = inhibition) at 10uM [%]
Cc1ccc(/C=N/N(C)C2=NS(=O)(=O)c3ccccc32)cc1 | 8.78
NNC(=O)c1ccc(CN2CCCCC2)o1 | 1.21
O=C(CC1C(=O)NCCN1C(=O)Nc1ccccc1)Nc1cccc(C(F)(F)F)c1 (stereo not drawn) | 1.16
CCN(CC)CCn1nc(C)nc1-c1ccccc1O | -16.9
O=C(CNC(=O)c1ccc(Br)cc1)N/N=C/c1cccnc1 | 1.33
C=CCc1c(C)[nH]c2c(OC)cccc2c1=S | -0.654
CCN1C(=O)[C@@H]2[C@@H](c3ccc(-c4ccc(Cl)c(Cl)c4)cc3)N3CCCC[C@@]3(C(=O)OC)[C@@H]2C1=O.O=C(O)C(F)(F)F | 6.4
CC(C)c1ccccc1NC(=O)COC(=O)Cc1ccsc1 | 14.9
O=C(Nc1ccccc1)Nc1ccccc1C(=O)NCc1ccco1 | -13.1
Cc1ccc2c(CC(=O)NC3CCS(=O)(=O)C3)coc2c1C (stereo not drawn) | 1.78
CCOc1cccc(NC(=O)C2CCCN(S(=O)(=O)c3ccc(-n4cnnn4)cc3)C2)c1 (stereo not drawn) | 5.5
N#CCCn1cc(/C=N/NC(N)=S)c(-c2ccccc2)n1 | -28
CCN(CC)CCCC(C)NC(=O)c1ccc(C(F)(F)F)cc1.Cl (stereo not drawn) | -7.01
COc1ccccc1-c1coc2cc(OC(=O)/C=C/c3ccccc3)ccc2c1=O | -1.25
CCOc1ccc(C2NC(=O)CCC2[N+](=O)[O-])cc1 (stereo not drawn) | 30.9
Cc1c(C(=O)NCCCN2CCOCC2)oc2c1C1(CCC2)SCCS1 | -10.8
CCCC(C)NC(=O)CSc1nnc2ccccn12 (stereo not drawn) | 16.8
Cc1nc2c(nnn2Cc2ccccc2)c(=O)n1-c1ccccc1 | 0.475
Cc1ccccc1CSCCNC(=O)c1ccccc1 | -1.61
CCCCS(=O)Cc1ccccc1 (stereo not drawn) | -5.94
O=C(C(Cc1ccccc1)NS(=O)(=O)c1cccc2nsnc12)N1CCC2(CC1)OCCO2 (stereo not drawn) | -10.2
CCOc1ccc(C(=O)c2ccccc2C(=O)O)cc1OCC | 21.4

Structure (SMILES) | hERG current change (%, negative = inhibition) at 10uM [%]
CC(C)(C)NC(=O)CN1CCC(O)(c2ccc3c(c2)OCO3)CC1 | -3.18
CCc1nc(Nc2ccccc2OC)c2oc3ccccc3c2n1.Cl | 12.5
CCn1cc(C2=NC(C)(C)CO2)c2ccccc21 | -8.38
CCOC(=O)C1=Nc2ccccc2C1=[N+]=[N-] | -4.78
COc1cc2c(cc1NC(=O)CSc1cccc[n+]1[O-])oc1ccccc12 | -1.41
COc1cc(/C=C/C(=O)Nc2cccc(S(=O)(=O)NC3=NCCCCC3)c2)ccc1OCC#N | -4.72
O=C(O)CCC(=O)N1N=C(c2ccccc2)CC1c1ccc2nccnc2c1 (stereo not drawn) | 7.33
O=C1CCN(N=Nc2cccc(Cl)c2)N1 | 3.28
COc1ccc(CCNC(=O)C23CCC(C)(C(=O)C2Br)C3(C)C)cc1OC (stereo not drawn) | 4.92
O=C(COC(=O)c1ccc2c(c1)OCO2)NCc1ccc2c(c1)OCO2 | -15.2
c1ccc2c(c1)SCc1nnc(-c3ccncc3)n1-2 | -2.6
CC1CCCN(C(=O)Cn2c(=O)oc3ccccc32)C1 (stereo not drawn) | 12.4
COCCNC(=O)C1CC(c2cccc(F)c2)=NO1 (stereo not drawn) | 2.78
COc1ccc(/C=C/c2nnc(NC(=O)CSc3ccc(C)cc3)s2)cc1 | 17.4
CC1CCN(C(=O)COC(=O)CNC(=O)C23CC4CC(CC(C4)C2)C3)CC1 | 4.93
COC(CN(C(=O)CCl)C(C(=O)NC1CCCCC1)c1ccc(Cl)cc1)OC (stereo not drawn) | 2.73
Cl.N=C(N)SCc1ccccn1 | -8.71
CC1CN(C(=O)c2cc(Br)c(Br)s2)CC(C)O1 (stereo not drawn) | -11.8
Cc1nn(Cc2ccccc2)c(C)c1NC(=O)Cn1nc([N+](=O)[O-])c(Cl)c1C | -10.4
N#CC(C#N)=C(Nc1ccc(F)cc1)SCc1cccc(Br)c1 | 2.1
Cc1cc(C)c(Nc2ncnc(N)n2)c(C)c1 | 8.86
COc1ccc(CCOC(=O)c2cccc(NC(C)=O)c2)cc1 | 5.93

Structure (SMILES) | hERG current change (%, negative = inhibition) at 10uM [%]
COC(=O)c1ccc(NCCC(=O)O)cc1 | -4.87
COC(=O)c1sc(S(=O)(=O)N2CC(C)OC(C)C2)c(C(=O)OC)c1C (stereo not drawn) | -10.7
Cc1cc(Br)c2[nH]c3c(c2c1)CCCC3=O | -5.11
O=C(N/N=C\c1ccncc1)c1ccc(Br)s1 | 13
COc1cccc(/C=N/NC(=O)C(=O)NCc2ccco2)c1OC | 11
Cc1cccc(C)c1OCc1cc(C(=O)NC2CCC2)no1 | 15.7
O=c1[nH]c(C2CCN(S(=O)(=O)c3ccc([N+](=O)[O-])cc3)CC2)nc2c1nnn2Cc1ccccc1 | 27.5
Cc1c(C2(O)C(=O)Nc3ccc(F)cc32)c(=O)n(-c2ccccc2)n1C (stereo not drawn) | 0.582
COC(=O)c1ccc(OC(=O)CCc2cc(OC)c(OC)c(OC)c2)cc1 | 9.54
O=C(COc1ccc(Cl)cc1)Nc1cccc(S(=O)(=O)NCc2ccco2)c1 | -42.7
CC(=O)Nc1ccc(S(=O)(=O)NC2(C(F)(F)F)C(=O)Nc3c2c(=O)[nH]c(=O)n3C)cc1 (stereo not drawn) | -5.06
O=C(CCNC(=O)c1ccco1)Nc1ccc(N2CCOCC2)cc1 | 9.59
COc1cc(/C=C/C(=O)C2C(=O)C=C(C)OC2=O)cc(OC)c1O (stereo not drawn) | 4.63
O=C(C1CCCN(S(=O)(=O)c2ccc(Br)s2)C1)N1CCN(c2ccccc2)CC1 (stereo not drawn) | -63.8
COCCCNc1nc2ccccc2nc1NS(=O)(=O)c1ccc(C)c(C)c1 | -0.0603
COc1cc(/C=N/NS(=O)(=O)c2ccc(C(C)(C)C)cc2)cc([N+](=O)[O-])c1O | 12.9
CCCCN(C)C(=O)c1nc2ccccn2c1CN(C)Cc1csc(C)n1 | 17.8
COc1ccc(NS(=O)(=O)c2ccc(C)c(C(=O)NCC(c3ccco3)N3CCCCC3)c2)cc1 (stereo not drawn) | -20.5
C[C@@H](O)C1NC(=O)[C@H](CCCCN)NC(=O)c2cc([N+](=O)[O-])cc(F)c2NCCCC[C@@H](C(N)=O)NC1=O (stereo partly drawn) | 11.3
NC(=O)c1sc2nc(-c3cccnc3)ccc2c1N | 16.4
COc1cc(C(=O)Nc2nc3ccc4nc(C)sc4c3s2)cc(OC)c1OC | -5.34
Cc1cc(C(=O)N2CCN(c3ncccn3)CC2)sc1-c1ccccc1 | -3.34

Structure (SMILES) | hERG current change (%, negative = inhibition) at 10uM [%]
Cc1ccc(NC(=O)C2CCCN(S(=O)(=O)c3c(C)noc3/C=C/N(C)C)C2)cc1F (stereo not drawn) | -1.44
OCC1(c2cc(C(F)(F)F)n[nH]2)CCCCC1 | -0.781
Cc1cccc(N2C(=O)NC(=O)/C(=C\c3ccc4c(c3)CCCN4Cc3ccccc3)C2=O)c1 | 5.53
CCn1c(=O)n(CC)c2cc(NC(=O)C(C)c3ccccc3)c(Br)cc21 (stereo not drawn) | 7.4
CCn1nc(C)c(/C=N\NC(=O)c2ccc3c(c2)OCO3)c1C | 7.11
COc1cccc(N(CC(=O)Nc2cccnc2)S(C)(=O)=O)c1 | 15.3
CCN(CC)C(=O)CSc1nc2ccc(NC(=O)CSc3nnc(COc4ccccc4C)n3C)cc2s1 | -7.84
CC(NC(=O)C12CC3CC(CC(C3)C1)C2)C(=O)N/N=C/C1=C(N2CCOCC2)C(=C\c2cccc([N+](=O)[O-])c2)/CC1 (stereo not drawn) | 3.71
Cc1ccc(C2Nc3cccc4cccc(c34)N2)cc1 | 3.91
C/C=C/C=C/C(=O)N1CC2(CC(c3cccc(NC(=O)CCCCC)c3)=NO2)C[C@H]1C(N)=O (stereo partly drawn) | -37.4
Cc1cccc(/C=C/c2onc(C)c2S(=O)(=O)N2CCC(C(=O)N3CCC(C)CC3)CC2)c1 | 10.9
Br.Oc1ccc(C2CNCc3sccc32)cc1O (stereo not drawn) | -5.06
CCSc1nc2sc3c(c2c(=O)n1CC)CC(C)(C)OC3 | -1.63
CSc1cccc(N2CC(C(=O)N(Cc3nnc(-c4ccccc4Cl)o3)C3CC3)CC2=O)c1 (stereo not drawn) | -55.5
C/C(CC(=O)Nc1ccc2c(c1)OCCO2)=N\NC(=O)c1ccccn1 | 32.8
CCOc1ccc(N2CC(C(=O)NNC(=O)c3ccc(Br)cc3)CC2=O)cc1 (stereo not drawn) | -1.21
CN(C(=O)CSc1nc2c(c(=O)[nH]1)CCCC2)C1CCCCC1 | -9.01
CC(=O)c1ccc(OCCCC(=O)NCC(c2ccco2)N(C)C)cc1 (stereo not drawn) | -28.1
CCC(=O)c1ccc(N2CCN(C(=O)Cc3ccccc3)CC2)c(F)c1 | -36.5
CCc1nnc(NS(=O)(=O)c2ccc(NC(=O)c3cccc4ccccc34)cc2)s1 | 20.4
Cc1cnc(C(=O)OCc2csc(CC(=O)Nc3ccccc3C)n2)cn1 | 1.21
